The results in this text go back to the RNAGym collection of RNA variant scans (doi:10.1073/pnas.2313332121).

Variants at the background level are over-represented here.

B1: TPR 5TU (parent)
chain: GGAUCUUCUCGAUCUAACAAAAAAGACAAAUCUGCCACAAAGCUUGAGAGCAUCUUCGGAUGCAGAGGCGGCAGCCUUCGGUGGCGCGAUAGCGCCAACGUUCUCAACUAUGACACGCAAAACGCGUGCUCCGUUGAAUGGAGUUUAUCAUG

The data set covers variants of B1. Put plainly: polymerase ribozyme fitness, log enrichment relative to wild type (log ratio); higher = more active; in vitro selection for triplet polymerase activity. The method, boiled down: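 A single round of triplicate in vitro selection, including frozen incubation at −7 °C, was applied to PCR-built, transcribed mutant libraries of each subunit of a heterodimeric triplet polymerase ribozyme. Illumina sequencing of input and output libraries retained genotypes with ≥10 input reads and ≥1 read per output. Fitness is the base-2 logarithm of genotype enrichment divided by wild-type enrichment, from inverse-variance-weighted replicate averages.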
U9G A30U G84U C85U: the “polymerase ribozyme fitness (log ratio)” value was ≤ -4.2. For the variant G11C A16U A40C G80A C114U, the “polymerase ribozyme fitness (log ratio)” value is ≤ -4.2. As to U9G A19U G83A A107G A115G G141A, the “polymerase ribozyme fitness (log ratio)” value was ≤ -4.2. Turning to C10A A19C A28C U61A C85U U90A A98G U101C G124U, the “polymerase ribozyme fitness (log ratio)” value is ≤ -4.2. Turning to C10A U31C C93A A97G U144C, the “polymerase ribozyme fitness (log ratio)” value was ≤ -4.2.

In the case of C10U G42A A49G G50C G86U A98U G140C, the “polymerase ribozyme fitness (log ratio)” value was ≤ -4.2. Take G11C C14G A21G C93A C129A A142U: the “polymerase ribozyme fitness (log ratio)” value was ≤ -4.2.

G11C A17U G46C C87G A142U: the “polymerase ribozyme fitness (log ratio)” value is ≤ -4.2. As for G11A G59A C75A G84U G94A A98C C114U C116A, the figure is ≤ -4.2. U9G A30U A52C G58U G59A A98U U139A U146G: the “polymerase ribozyme fitness (log ratio)” value is ≤ -4.2. C10G C35U A37U A41U C43U U55A G92U U148A: the “polymerase ribozyme fitness (log ratio)” value was ≤ -4.2. For the variant U9G A23C G58A U146A A150G, the “polymerase ribozyme fitness (log ratio)” value was ≤ -4.2. In the case of C10U G58U C69U U77G C85U U151C, the “polymerase ribozyme fitness (log ratio)” value is ≤ -4.2.

As to C10A A22U A24G A40C A52C C57U G70A C93U A147C, the “polymerase ribozyme fitness (log ratio)” value is -4.05.

As for C10U A41C G92A C99G U144A, the “polymerase ribozyme fitness (log ratio)” value is ≤ -4.2. Regarding C10U A23U U90G, the “polymerase ribozyme fitness (log ratio)” value was ≤ -4.2.

For C10A A66C G84A C87U, the “polymerase ribozyme fitness (log ratio)” value is ≤ -4.2. As for C10G C38A G88A A97U, the “polymerase ribozyme fitness (log ratio)” value is ≤ -4.2. For the variant G11A C38A A40G, the “polymerase ribozyme fitness (log ratio)” value is -4.14.

As to G11A G48C G92U, the “polymerase ribozyme fitness (log ratio)” value is -0.981.

As to U9G C54G G62A C75A G81C C93G C96A C103G C118U, the “polymerase ribozyme fitness (log ratio)” value was ≤ -4.2.

Turning to U9G G83U G88C C123G U148G C149U, the “polymerase ribozyme fitness (log ratio)” value was ≤ -4.2.

Turning to C10U A19C A23U C27A C35A A97U C132A G136A A142C, the “polymerase ribozyme fitness (log ratio)” value was ≤ -4.2. On to C10U A52C C87U G88A A122U C123G, for which the “polymerase ribozyme fitness (log ratio)” value was ≤ -4.2.

In the case of G11A A17G U31A U53G C54U A64G, the “polymerase ribozyme fitness (log ratio)” value is ≤ -4.2. As for G11A A40C A49C G74C C85A C95G G100C A147U, the figure is ≤ -4.2; as for G11C A20U G48U U53G A73C G86A C116U, ≤ -4.2. For the variant C10A U33G A60G C75A A106U G117U A137C U144A, the “polymerase ribozyme fitness (log ratio)” value was ≤ -4.2. Consider G11A A17G C43U G94U A122G G141U, for which the “polymerase ribozyme fitness (log ratio)” value is ≤ -4.2. As for C10G A17C U33A U55A A73G C87G, the figure is ≤ -4.2. Take C10U C51G U53A U90G: the “polymerase ribozyme fitness (log ratio)” value is ≤ -4.2.

Take C10G C54U U56A G62U G94A C149U: the “polymerase ribozyme fitness (log ratio)” value is ≤ -4.2. Take U9G G86U C125U: the “polymerase ribozyme fitness (log ratio)” value is ≤ -4.2. Regarding C10G C18G G42U A49C G50A G74A G133C G143A, the “polymerase ribozyme fitness (log ratio)” value was ≤ -4.2. With C10G C38U C87A C93G, the “polymerase ribozyme fitness (log ratio)” value is ≤ -4.2. As for C10G C36U U55A C95U G133U, the “polymerase ribozyme fitness (log ratio)” value is ≤ -4.2. Consider G11A C85U U109C C114U, for which the “polymerase ribozyme fitness (log ratio)” value was ≤ -4.2. Next, C10U C38U G80A G94C C125A G143A: ≤ -4.2. As for G11A G59C C85G A89U C105U, the figure is ≤ -4.2.

Consider U9G A29U U53G U55G C93A A137C, for which the “polymerase ribozyme fitness (log ratio)” value is ≤ -4.2. Regarding C10U A26G G50A C95A, the “polymerase ribozyme fitness (log ratio)” value was ≤ -4.2. G11A G25C C35G C75G C79U C93G A121U G133U: the “polymerase ribozyme fitness (log ratio)” value is ≤ -4.2. For the variant U9G C14G C38U G50C A138C G141A, the “polymerase ribozyme fitness (log ratio)” value is ≤ -4.2.

For the variant C10G C36U G70C C79A C95G A115U, the “polymerase ribozyme fitness (log ratio)” value was ≤ -4.2. For C10G G94A, the “polymerase ribozyme fitness (log ratio)” value was -3.44. U9G U53C G58A U148G: the “polymerase ribozyme fitness (log ratio)” value is ≤ -4.2.

For G11A A24G G83C, the “polymerase ribozyme fitness (log ratio)” value is ≤ -4.2. Take C10U A26G C85A A137U: the “polymerase ribozyme fitness (log ratio)” value was ≤ -4.2. For C10A A52U C57G G59C C103G U144A, the “polymerase ribozyme fitness (log ratio)” value is ≤ -4.2. On to C10A C93U G141A, for which the “polymerase ribozyme fitness (log ratio)” value was ≤ -4.2. On to U9G G83C C93G, for which the “polymerase ribozyme fitness (log ratio)” value was ≤ -4.2.

Turning to U9G G46C C76A C85G U90G A121U, the “polymerase ribozyme fitness (log ratio)” value is ≤ -4.2. On to C10U A24G C27G A142U U145C, for which the “polymerase ribozyme fitness (log ratio)” value is ≤ -4.2. Turning to C10U A17U G25C C87A A106G C108A, the “polymerase ribozyme fitness (log ratio)” value is ≤ -4.2. Consider C10G A21U A22U U55A G59C A142C, for which the “polymerase ribozyme fitness (log ratio)” value was ≤ -4.2. Take C10G A39G G136C: the “polymerase ribozyme fitness (log ratio)” value was ≤ -4.2. As for C10U A17C C57U G133U, the “polymerase ribozyme fitness (log ratio)” value was ≤ -4.2. As to G11A A21G G71U G84U A138U U151A, the “polymerase ribozyme fitness (log ratio)” value was ≤ -4.2. On to C10G A16C G50A C93U, for which the “polymerase ribozyme fitness (log ratio)” value is ≤ -4.2.

Regarding G11A A19U U56G U82C G84U C95U, the “polymerase ribozyme fitness (log ratio)” value was ≤ -4.2. Next, G11A A39C A52U C72U G86C C108A G124U U144A: ≤ -4.2. For the variant C10U A16G G84U G140U, the “polymerase ribozyme fitness (log ratio)” value was ≤ -4.2. As to C10G A20G A138G U144A U145A, the “polymerase ribozyme fitness (log ratio)” value is ≤ -4.2.

Consider C10U G50C C51U C54G C87U, for which the “polymerase ribozyme fitness (log ratio)” value is ≤ -4.2. Regarding C10U A39C G50U C87A C95U A97U C116A G140U, the “polymerase ribozyme fitness (log ratio)” value is ≤ -4.2. As to C10G C87U C93G, the “polymerase ribozyme fitness (log ratio)” value is ≤ -4.2.

For the variant G11C A17C A52C C85U A115G C125U C132U, the “polymerase ribozyme fitness (log ratio)” value was ≤ -4.2. As for C10A U15G U31A C36U U55A A73G C108G A142G, the “polymerase ribozyme fitness (log ratio)” value is ≤ -4.2.

Regarding C10A A73U U104G C118G, the “polymerase ribozyme fitness (log ratio)” value is ≤ -4.2. As for C10A G46A C85G C114U G140A G141A G143A, the “polymerase ribozyme fitness (log ratio)” value is ≤ -4.2. With G11A U134A, the “polymerase ribozyme fitness (log ratio)” value was -3.6. As for C10U A22G C87G, the figure is ≤ -4.2; as for G11A C85A C114U, ≤ -4.2; as for U9G U44G G59C U148G, ≤ -4.2.

For G11C C18U A22G U44G A60G G68C G84C, the “polymerase ribozyme fitness (log ratio)” value is ≤ -4.2.

With C10U A41U G92C U139G, the “polymerase ribozyme fitness (log ratio)” value was -4.06.

For C10A U13G A23G U44G U102A A121U, the “polymerase ribozyme fitness (log ratio)” value was ≤ -4.2. C10A G11A A39U C93A G141U: the “polymerase ribozyme fitness (log ratio)” value was ≤ -4.2.

On to C10A A12G A22G U56A C85G, for which the “polymerase ribozyme fitness (log ratio)” value was ≤ -4.2.

Take C10A U56G C57G G59A C79U G83C C99G: the “polymerase ribozyme fitness (log ratio)” value is ≤ -4.2.

For C10G C95U C108U C125U, the “polymerase ribozyme fitness (log ratio)” value was ≤ -4.2. Next, C10A C14G U77A C85A G92A A110G A122G: ≤ -4.2; C10U U33C G58C G84U G86A A97U: ≤ -4.2.
